# Hit rate of the full screen: of about 39,000 compounds, about 220 (0.56%) showed activity. Some of the results follow.
# Test system: Escherichia coli K-12 BW25113
# Assay: relative growth (OD600 normalised to plate interquartile mean) (fraction); higher = less growth inhibition, active = 0.2 or less
# Conditions: 50 µM; LB; incubation time: overnight (16-24 h)
# 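Further: static incubation at 37 °C against the wild-type strain, values averaged over two biological replicates.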
row,SMILES,relative growth
1,C[C@@H]1CN([C@@H](C)CO)C(=O)c2cccc(NC(=O)Nc3ccc4c(c3)OCO4)c2O[C@@H]1CN(C)Cc1ccc(C(F)(F)F)cc1,inactive: 1.04
2,C=CCOC(=O)[C@H]1[C@@H]2C(=O)O[C@@H](c3ccccc3)[C@@H](c3ccccc3)N2[C@@H](c2ccc(OCCOC(=O)[C@H]3C[C@H]4C(=O)N[C@@H](CCCC[N+](C)(C)C)C(=O)N4[C@H]3c3cccc(OCCO)c3)cc2)[C@]12C(=O)Nc1ccc(I)cc12,inactive: 1.04
3,C[C@H](CO)N1C[C@H](C)[C@H](CN(C)C(=O)Cc2ccccn2)Oc2ncc(C#CC3CCCC3)cc2C1=O,inactive: 0.981
4,C[C@@H]1CN([C@@H](C)CO)C(=O)c2cc(NC(=O)CCCCCC(=O)Nc3ccccc3N)ccc2O[C@H]1CN(C)S(C)(=O)=O,inactive: 1.01
5,CN1CCN(C(=O)C[C@H]2CC[C@H]3[C@@H](COC[C@@H](O)CN3C(=O)C3CCOCC3)O2)CC1,inactive: 0.991
6,Cc1ccc(S(=O)(=O)N(C)C[C@@H]2OCCCC[C@@H](C)Oc3ccc(NC(=O)Nc4ccc(F)cc4)cc3C(=O)N([C@@H](C)CO)C[C@H]2C)cc1,inactive: 1.03
7,COc1ccc(CN(C)C[C@H]2Oc3c(NS(=O)(=O)c4cn(C)cn4)cccc3C(=O)N([C@@H](C)CO)C[C@H]2C)cc1,inactive: 1
8,COc1ccc(NC(=O)N(C)C[C@H]2Oc3ccc(NC(=O)Nc4cccc5ccccc45)cc3C(=O)N([C@@H](C)CO)C[C@@H]2C)cc1,inactive: 1.03
9,CCOC(=O)Nc1c[n+](N2CCOCC2)no1,inactive: 0.964
10,C[C@H]1CN([C@@H](C)CO)C(=O)c2cccc(NC(=O)NC3CCCCC3)c2O[C@H]1CN(C)Cc1ccc(Oc2ccccc2)cc1,inactive: 0.979
11,Cc1noc(C)c1NC(=O)N(C)C[C@@H]1OCCCC[C@@H](C)Oc2ccc(NS(=O)(=O)c3cccs3)cc2C(=O)N([C@H](C)CO)C[C@H]1C,inactive: 1
12,C[C@H]1CN([C@@H](C)CO)C(=O)c2cc(NC(=O)NC3CCCCC3)ccc2O[C@H]1CN(C)Cc1ccc(Cl)c(Cl)c1,inactive: 1
13,C[C@@H]1CN([C@@H](C)CO)C(=O)c2cc(NC(=O)CCCN(C)C)ccc2O[C@H]1CN(C)S(=O)(=O)c1ccc(F)cc1,inactive: 1.01
14,C[C@H](CO)N1C[C@H](C)[C@H](CN(C)S(=O)(=O)c2ccccc2)Oc2ncc(C#CC3(O)CCCC3)cc2C1=O,inactive: 1.04
15,Cc1ccc(S(=O)(=O)Nc2ccc3c(c2)CC(=O)N([C@@H](C)CO)C[C@@H](C)[C@H](CN(C)Cc2ccc(-c4ccccc4)cc2)O3)cc1,inactive: 1.01
16,COc1ccc(NC(=O)N(C)C[C@@H]2Oc3c(NC(=O)c4cnccn4)cccc3C(=O)N([C@@H](C)CO)C[C@@H]2C)cc1,inactive: 1.03
17,COc1ccc(C(=O)NCc2ccc(OCCN(C)C)cc2)cc1OC,inactive: 1.12
18,C[C@@H]1CN([C@H](C)CO)C(=O)c2cc(NS(=O)(=O)c3cn(C)cn3)ccc2O[C@@H](C)CCCCO[C@@H]1CN(C)S(=O)(=O)c1ccccc1,inactive: 1.04
19,COc1ccccc1O[C@@H](C)C(=O)NN,inactive: 1.01

row,SMILES,relative growth
1,CC(C)NC(=O)N(C)C[C@H]1Oc2ccc(NC(=O)C3CCCCC3)cc2CC(=O)N([C@@H](C)CO)C[C@H]1C,inactive: 0.991
2,CN(C)C(=O)C[C@H]1C=C[C@H](NC(=O)C2CC2)[C@@H](CO)O1,inactive: 0.971
3,COC(=O)[C@@H]1N2C(=O)[C@@H](N3C[C@](C)(OC)O[C@@H](Cc4ccccc4)[C@H]3/C=C/C3CC3)[C@H]2SC1(C)C,inactive: 1.04
4,C[C@H]1CN([C@@H](C)CO)C(=O)c2cc(NC(=O)Nc3ccc(C(F)(F)F)cc3)ccc2O[C@H]1CN(C)S(=O)(=O)c1ccc(Cl)cc1,inactive: 1.04
5,O=C(NO)c1ccc(C(=O)N/N=C/[C@@H](O)[C@@H](O)[C@H](O)[C@H](O)CO)cc1,inactive: 1
6,C[C@@H]1CN([C@H](C)CO)C(=O)Cc2cc(NC(=O)Nc3ccc(F)cc3)ccc2O[C@H]1CN(C)S(C)(=O)=O,inactive: 1
7,O=C(CCCCCC(=O)N/N=C/[C@@H](O)[C@H](O)[C@H](O)CO)NO,inactive: 0.999
8,C[C@@H]1CCCCO[C@H](CN(C)C(=O)Nc2ccc(F)cc2)[C@H](C)CN([C@@H](C)CO)C(=O)c2cc(NC(=O)Nc3ccc4c(c3)OCO4)ccc2O1,inactive: 1.03
9,CC(C)N1C[C@@H](C)[C@H](CN(C)Cc2ccc(Oc3ccccc3)cc2)Oc2c(C(=O)Nc3ccncc3)cccc2C1=O,inactive: 1.02
10,C[C@@H]1CN([C@@H](C)CO)C(=O)c2cc(NC(=O)Cc3ccccc3)ccc2O[C@@H](C)CCCCO[C@@H]1CN(C)Cc1ccccc1,inactive: 0.946
11,C[C@H]1CN([C@@H](C)CO)C(=O)c2cc(-c3ccc(C(=O)N(C)C)cc3)cnc2O[C@H]1CN(C)C(=O)c1ccncc1,inactive: 0.964
12,C[C@H](CO)N1C[C@H](C)[C@H](CN(C)C(=O)CCC(F)(F)F)OCCCC[C@H](C)Oc2ccc(NS(=O)(=O)c3ccccc3)cc2C1=O,inactive: 0.988
13,C[C@@H]1CN([C@H](C)CO)C(=O)Cc2cc(NC(=O)CCN3CCOCC3)ccc2O[C@@H]1CN(C)S(C)(=O)=O,inactive: 1.03
14,COc1ccc(COC[C@]23N=C4Sc5ccc([N+](=O)[O-])cc5C(=O)N4[C@H](c4ccccc4O2)[C@H]3COC(=O)c2ccccc2)cc1,inactive: 1.01
15,C[C@@H]1CN([C@H](C)CO)C(=O)c2cccc(NC(=O)c3nc4ccccc4s3)c2O[C@H]1CN(C)C(=O)Nc1ccc(C(F)(F)F)cc1,inactive: 0.923
16,C[C@H]1CN([C@@H](C)CO)C(=O)c2cccc(NC(=O)Nc3ccc(F)cc3)c2O[C@@H]1CN(C)Cc1ccc(C(=O)Nc2ccccc2N)cc1,inactive: 1.01
17,CO[C@H]1CN(C)C(=O)c2ccc(NS(=O)(=O)c3cn(C)cn3)cc2OC[C@H](C)N(CC2CC2)C[C@@H]1C,inactive: 0.997
18,C[C@@H]1CN([C@H](C)CO)C(=O)c2ccccc2-c2ccccc2CO[C@H]1CN(C)C(=O)Nc1cccc(C(F)(F)F)c1,inactive: 0.986
